# Measured values from the supplement of paper PMC10986608.
# This is one part of the list. Most values come without repeats; read them as rough.
# Tested on: Candida albicans DPL-15
# Experiment: growth (OD600) after compound treatment (apparently relative to screen median) (relative growth (fraction; screen median 1.02)); DPL-15 is a caspofungin-resistant clinical isolate; higher = more fungal growth (less antifungal activity)
# Conditions: 25 µM; RPMI 1640; 48 h; 30 °C
row,SMILES,growth
1,COC(=O)[C@]1([C@@H]2CCC(=O)O2)CC(=O)c2c(OC)cc(C)c(B3OC(C)(C)C(C)(C)O3)c2O1,0.976
2,COC(=O)c1cc(O)c(Cl)c(O)c1,0.979
3,COc1ccc(N2C(=O)C3=C(C(C)=NCCN3)C2c2ccc(C)cc2)cc1 (configuration not stated),0.923
4,CN1CCN=C(c2ccccc2)C2=C1C(=O)NC2c1ccc(Br)cc1 (configuration not stated),0.923
5,CCOC(=O)/C(C)=N/NC(C)=O,0.918
6,COC(=O)[C@@]12Oc3ccc(-c4ccnn4C)c(O)c3C(=O)C1=C(N)C[C@H](C)[C@H]2O,1.2
7,COC(=O)c1cc2c(c3c4cc(OC)ccc4n(S(=O)(=O)c4ccc(F)cc4)c13)C(=O)N(Cc1ccccc1)C2,0.927
8,COC(=O)C(C(=O)OC)N(C)Cc1ccccc1,0.881
9,N#Cc1ccc(C(=O)COC(=O)c2c(N)cccc2F)cc1,1
10,COc1ccc(C[C@H]2COC[C@@H]2Cc2ccc3c(c2)OCO3)cc1OC,1.03
11,COC(=O)[C@@H]1C[C@@]2(Cc3occc(=O)c3O)c3ccccc3N[C@H]2N1C(=O)C(F)(F)F,1.07
12,Cc1nn(C)c2c1C(c1ccccc1)N(c1ccccc1)C2=O (configuration not stated),1.04
13,CS(=O)(=O)Oc1c(C[C@]23CCCCC2=Nc2ccccc23)occc1=O,1.06
14,C#CCC(C)(C)CNC(=O)CC1(CNC(=O)c2cc(CS(=O)(=O)c3ccc(C)cc3)ccc2O)CCCCC1,1.23
15,COC(=O)[C@@]12Oc3ccc(-c4ccc(N)cc4)c(O)c3C(=O)C1=C(N)C[C@H](C)[C@H]2O,1.16
16,C[C@H]1Cc2cc3c(cc2[C@@]2(O1)C(=O)Nc1ccccc12)OCO3,0.971
17,C=CCO[C@]12OC[C@@H]3C[C@@]1(C)C(=O)C(C)=C[C@@H]32,0.971
18,COc1ccc([C@@]23Oc4cc(OC)cc(OC)c4[C@@](O)(C2=O)[C@H](C(=O)N(C)OC)[C@H]3c2ccccc2)cc1,0.975
19,COc1ccc(N2C(=O)c3[nH]nc(CC(C)C)c3C2c2cc(C(F)(F)F)ccc2C(F)(F)F)cc1 (configuration not stated),0.972
20,COC(=O)C1=C(C)N(CCc2cccs2)C(=S)NC1c1ccccc1 (configuration not stated),1.06
21,COc1cc(O)c2c(=O)c3c(CC=C(C)C)cc(OC)c(O)c3oc2c1,1.04

row,SMILES,growth
1,CC(C)(C)NS(=O)(=O)OCCCCC1CCCCC1,1.07
2,COc1ccc(N2C(=O)c3[nH]nc(CC(C)C)c3C2c2cnccc2OC)cc1 (configuration not stated),0.964
3,COC(=O)C1=C(C)N(Cc2ccc(F)cc2)C(=S)NC1c1cccc(Cl)c1 (configuration not stated),0.927
4,COc1ccc([C@@H]2[C@@H](C(=O)NC3CCCC3)[C@H](C(=O)NC3CCCC3)[C@H]2c2ccc(OC)c(OC)c2OC)c(OC)c1OC,1.11
5,COC(=O)C/C=C/[C@H](C)[C@@H](NC(=O)[C@H](Cc1c[nH]c2ccccc12)NC(=O)OC(C)(C)C)c1ccccc1,1.11
6,O=c1c(O)c(-c2ccc(N3CCOCC3)cc2)[nH]c2cccc(F)c12,active: 0.0822
7,CC1(C)CNC(=O)CC2(CCCCC2)CNC(=O)c2cccc(c2)-c2cc(n[nH]2)C1,1.1
8,CC(=O)OC1(C)C(=O)C=C2C=C(/C=C/C(=O)OC(C)(C)C)OC=C2C1=O (configuration not stated),1.14
9,CC(C)(C)c1ccc(C#C[C@@H]2C=C[C@@H](O)[C@@H](COC(=O)Nc3ccccc3)O2)cc1,1.08
10,CC(=O)OCC(CO)N1C(=O)c2[nH]nc(CC(C)C)c2C1c1ccc(F)cc1 (configuration not stated),0.882
11,CCCCCCNS(=O)(=O)NC(C)(C)C,1.18
12,CNc1ccc(-c2ccc(F)cc2)cc1N,1.04
13,COc1cccc(CN(C)C[C@H]2CCCN(CCc3ccccc3C)C2)c1,0.997
14,COC(=O)NC(C(=O)OC)(C(=O)OC)c1ccccc1,1
15,COc1cccc(Oc2ccccc2C(=O)O)c1OCc1ccccc1,1.13
16,CC#CCN1C(=O)NC(c2ccccc2)C(C#N)=C1C (configuration not stated),0.984
17,CCCCOS(=O)(=O)NC(C)(C)C,1.13
18,C[C@@H](O)Cn1nc2cc1-c1cccc(c1)C(=O)NCC1(CCCCC1)CC(=O)N[C@@H](c1ccccc1)COC2,1.17
19,CC(=O)OC[C@H]1O[C@H](c2cccc(C(C)=O)c2)C=C[C@@H]1OC(C)=O,0.934
20,COC(=O)C1=C(C)N(Cc2ccc(C(F)(F)F)cc2)C(NCC2CC2)=NC1c1ccccc1 (configuration not stated),1.11
21,CC(C)Cc1nn(-c2ccc(OC(F)(F)F)cc2)c2c1C(c1ccc(Br)cc1)NC2=O (configuration not stated),1.14

row,SMILES,growth
1,CO[C@@H]1[C@H](O)CC[C@]2(O)CN(c3ccc(C)c(O)c3)[C@](C)([C@H](O)CC=C(C)C)[C@@H]12,0.973
2,COC(=O)C1=C(C)N(Cc2cccc(F)c2)C(=S)NC1c1cccc(Cl)c1 (configuration not stated),0.873
3,CO[C@@H]1CCN(C(=O)c2c(O)cc(O)cc2Nc2cnn(C(C)C)c2)C1,1.02
4,CCO[C@H]1CCN(C(=O)c2c(O)cc(O)cc2Nc2c(C)nn(C)c2C)C1,1.01
5,CC(C)CC1=NCC(C)(C)NC2=C1C(c1cccc(C(F)(F)F)c1)N(Cc1ccccc1)C2=O (configuration not stated),1.04
6,COc1ccc(C[C@@H]2COC[C@@H]2Cc2ccc3c(c2)OCO3)cc1OC,0.936
7,CC(C)Cc1n[nH]c2c1C(c1ccsc1)N(c1ccc3c(c1)OCO3)C2=O (configuration not stated),0.974
8,Cc1nn(-c2ccc(F)cc2)c2c1C(c1cccc(C(F)(F)F)c1)NC2=O (configuration not stated),0.766
9,O=C(NCCn1ccnc1)c1nnc(-c2ccccc2)c(-c2ccccc2)n1,1.05
10,COc1cc(Br)c(C(=O)N2Cc3ccccc3C2)c(OC)c1,0.902
11,COC(=O)N1C2=C(c3ccccc3[C@@H]1CC(=O)O)[C@H]1O[C@@H](C2)c2ccccc21,1.13
12,COC(=O)C/C=C/[C@@H](C)[C@H](NC(=O)OCC(Cl)(Cl)Cl)c1ccc2ccccc2c1,0.952
13,COc1ccc([C@]23[C@H](c4ccccc4)C[C@@H](O)[C@@]2(O)c2c(OC)cccc2N3C)cc1,1.19
14,COC(=O)C1=C(C)N(Cc2ccc(Cl)cc2)C(=S)NC1c1ccccc1F (configuration not stated),0.854
15,CO[C@H]1CCN(C(=O)c2c(O)cc(O)cc2Nc2cnn(CCN(C)C)c2)C1,1.11
16,COc1cc(F)cc2c1[C@]1(O)[C@H](O)[C@@H](C#N)[C@H](c3ccccc3)[C@]1(c1ccc(Br)cc1)O2,1.06
17,CC1=Nc2ccccc2[C@@]1(C)Cc1occc(=O)c1OS(C)(=O)=O,1.26
18,CCNC(=O)[C@H]1[C@H](C(=O)NCC)[C@@H](c2ccc(O)c(OC)c2)[C@@H]1c1ccc(O)c(OC)c1,1.03
19,Nc1ccccc1C(=O)/C=C/c1ccccc1,0.711
20,COc1ccc(N2C(=O)c3[nH]nc(CC(C)C)c3C2c2ccc(Cl)cc2)cc1 (configuration not stated),1.16
21,COc1cccc(Oc2cccc(F)c2C(=O)O)c1OCc1ccccc1,1.03

row,SMILES,growth
1,Cc1cc(O)c2c(c1)OC1(C)C(=O)C=CC(O)=C1C2=O (configuration not stated),1.13
2,CCN1C(=O)N[C@@H](c2cccc(F)c2)C(C(C)=O)=C1C,0.983
3,CNc1cccc(F)c1C(=O)OCC(=O)c1ccc(C#N)cc1,0.967
4,C=C1CC[C@H]2[C@H](C(=O)C(C)C)C3=C(O[C@]2(C)CC[C@@H]2[C@@H]1CC2(C)C)C(C)(C)C(=O)C(C)(C)C3=O,0.901
5,CC(C)C(=O)O[C@@H]1c2c(c3c([c-]2[N+]#N)C(=O)c2c(O)cccc2C3=O)C(=O)[C@@H]2O[C@]12C,0.603
6,COC(=O)[C@@H]1[C@@H](c2ccccc2)[C@]2(c3ccc(OC)cc3)Oc3cc(OC)cc(OC)c3[C@@]1(O)C2(O)O,1.02
7,N#Cc1ccc(S(=O)(=O)N2CCCc3nc(-c4ccc(F)cc4)ccc32)cc1,0.962
8,C=CC(=O)OC[C@H]1O[C@H](C#Cc2ccc(C(C)(C)C)cc2)C=C[C@H]1OC(=O)C=C,0.984
9,CCO[C@@H]1CCN(C(=O)c2c(O)cc(O)cc2Nc2cnn(C)c2)C1,1.08
10,Cn1nc(-c2cccc(C(F)(F)F)c2)cc1N,1.32
11,COc1cccc(N2C(=O)c3[nH]nc(CC(C)C)c3C2c2ccc(F)cc2)c1 (configuration not stated),1.02
12,CCOC(=O)CN1CCCc2nc(CC)c(CC)cc21,0.89
13,COc1ccc(N2C(=O)c3c(c(C(C)C)nn3C)C2c2cccc(C(F)(F)F)c2)cc1 (configuration not stated),0.999
14,COc1ccc2c(c1)C(=O)[C@@H](OC(=O)NS(=O)(=O)c1ccc(F)cc1)[C@H](c1ccc(OC)c(Br)c1)O2,0.407
15,CC1=C[C@]2(O[C@H](COc3ccccc3)C1)C(=O)N(C)c1ccccc12,0.941
16,O=C(c1ccccc1)N1CCc2c(cc(-c3ccccc3)c(-c3ccccc3)[n+]2[O-])C1,1.09
17,CCc1cc2c(nc1CC)CCCN2S(=O)(=O)c1ccc(OC)cc1,0.904
18,CC(C)C1=NCC(C)(C)NC2=C1C(c1ccc3c(c1)OCO3)N(c1ccccc1)C2=O (configuration not stated),1.06
19,COc1ccc([C@@H]2[C@@H](C(=O)Nc3ccccc3)[C@@H](C(=O)Nc3ccccc3)[C@@H]2c2ccc(OC)c(OC)c2)cc1OC,1.01
